# Test results: PubChem BioAssay AID504332 (National Center for Advancing Translational Sciences (NCATS), 2011)
# Hit rate of the full screen: of about 350,000 compounds, about 31,000 (8.9%) were called active. The inconclusive results got no clear call from the source; some entries with a clear call stand among them for comparison. The call rests on the fitted dose curve; in most records, active means well fitted inhibition curve with a large enough effect; inconclusive means small, poorly fitted or top-dose-only effect; inactive means no such curve, though single readings can be large or run the other way. Where the call is inconclusive, the potency comes from a doubtful curve fit.
# Target: Histone-lysine N-methyltransferase EHMT2 (Homo sapiens) (UniProt Q96KQ7)
# Test: qHTS Assay for Inhibitors of Histone Lysine Methyltransferase G9a; further: nearly all actives have a fitted effect of over 75% in size
# Settings: G9a H3K9 monomethylation, AlphaScreen, 2 h; activity, negative = inhibition: at 59 µM (top of the series) unless noted
# Method in brief: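 Quantitative HTS format: methyltransferase activity on a biotin-tagged H3K9 peptide is measured by AlphaScreen, using a rabbit anti-monomethyl-H3K9 antibody with streptavidin donor and anti-IgG acceptor beads. Final levels are 20 nM enzyme, 500 nM peptide, 20 uM SAM; 2 h RT.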
# On the % scale 0 is the no-effect control and ±100 the full control effect; potency means the concentration at half of the fitted maximal effect; tags describe the fitted curve by direction and shape.
# Sequence of UniProt Q96KQ7 (Q96KQ7 whole entry, looked up): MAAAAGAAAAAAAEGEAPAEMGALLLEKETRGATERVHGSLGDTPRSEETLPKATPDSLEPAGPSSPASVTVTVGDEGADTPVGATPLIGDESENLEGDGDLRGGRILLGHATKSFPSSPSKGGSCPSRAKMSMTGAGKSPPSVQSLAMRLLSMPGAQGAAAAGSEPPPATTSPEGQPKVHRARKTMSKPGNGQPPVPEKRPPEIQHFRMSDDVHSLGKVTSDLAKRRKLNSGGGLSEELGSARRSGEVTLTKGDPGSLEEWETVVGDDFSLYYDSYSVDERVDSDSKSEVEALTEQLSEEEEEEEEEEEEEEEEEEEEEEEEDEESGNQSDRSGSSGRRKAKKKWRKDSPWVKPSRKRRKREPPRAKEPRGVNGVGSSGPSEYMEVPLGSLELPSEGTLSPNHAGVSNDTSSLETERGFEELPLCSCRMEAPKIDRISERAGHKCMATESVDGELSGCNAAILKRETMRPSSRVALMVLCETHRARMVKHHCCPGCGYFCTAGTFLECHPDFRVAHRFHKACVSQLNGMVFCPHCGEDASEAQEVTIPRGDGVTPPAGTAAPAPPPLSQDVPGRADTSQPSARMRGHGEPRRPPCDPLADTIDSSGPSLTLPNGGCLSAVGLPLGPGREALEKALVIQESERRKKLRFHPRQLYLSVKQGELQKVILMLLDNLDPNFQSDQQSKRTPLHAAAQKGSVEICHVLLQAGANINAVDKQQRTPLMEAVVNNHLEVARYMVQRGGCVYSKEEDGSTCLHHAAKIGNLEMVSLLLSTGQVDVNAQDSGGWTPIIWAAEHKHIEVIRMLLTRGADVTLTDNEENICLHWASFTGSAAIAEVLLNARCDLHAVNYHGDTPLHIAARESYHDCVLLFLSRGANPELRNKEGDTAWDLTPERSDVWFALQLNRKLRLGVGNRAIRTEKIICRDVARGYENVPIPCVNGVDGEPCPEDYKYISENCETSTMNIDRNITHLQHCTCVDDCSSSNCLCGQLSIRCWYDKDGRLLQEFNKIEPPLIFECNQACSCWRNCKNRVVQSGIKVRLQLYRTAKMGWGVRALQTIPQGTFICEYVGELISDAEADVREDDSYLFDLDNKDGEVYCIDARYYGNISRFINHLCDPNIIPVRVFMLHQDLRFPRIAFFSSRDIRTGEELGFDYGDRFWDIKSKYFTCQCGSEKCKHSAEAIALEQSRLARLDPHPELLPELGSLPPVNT
SMILES,Potency,"activity, negative = inhibition"
COc1ccc(-c2[nH]ncc2-c2nc(C)cs2)c(O)c1,"inconclusive: 50.1 µM [inhibitor, partial curve, poor fit]",
Cc1nc2c(C(=O)N3CCOCC3)cnn2c(C)c1Cc1cccc(Cl)c1,active: 50.1 µM,
C=CCn1c(C)csc1=Nc1ccccc1C,active: 50.1 µM,
Cc1ccc(N2CCn3c2nc2c3c(=O)n(C/C=C/c3ccccc3)c(=O)n2C)cc1C,"inconclusive: 12.6 µM [inhibitor, partial curve]",
O=C(CSc1cc(Cl)ccc1Cl)Nc1ccc(N2CCOCC2)cc1,"inconclusive: 3.16 µM [inhibitor, single point]",
CCN1/C(=C(\O)c2ccccc2)C(=O)c2ccccc2S1(=O)=O,,inconclusive: -88% [inhibitor]
COC1CCCN(Cc2c(C(=O)N3CCN(C4CCCCC4)CC3)nc3ccccn23)C1 (configuration not stated),active: 79.4 µM,
COc1ccc2ccccc2c1/C=N/NC(=S)NCCN1CCOCC1,"inconclusive: 79.4 µM [inhibitor, partial curve, poor fit]",
O=C(CCN1CCN(c2ccccc2)CC1)c1ccc(Cl)cc1,active: 28.2 µM,
COCc1cc(C)nc2sc(C(=O)Nc3ccccc3O)c(N)c12,,inactive: 28.2%
O=C(NN=C1CCCCCCCCCCC1)c1cccnc1,,inactive: -6.03% [at 102 µM]
C=C(C)C(=O)Nc1cccc(C2=NOC3(C2)C[C@H](C(N)=O)N(C(=O)c2ccccc2C(=O)c2ccccc2)C3)c1 (some centres not stated),,inconclusive: -119% [inhibitor] [at 12.7 µM]
C=CCN1C(=O)/C(=C\c2ccc(OC(=O)c3ccco3)c(OC)c2)SC1=S,active: 14.1 µM,
CCOC(=O)c1ccc(OCc2nc(-c3cccs3)no2)cc1,,inactive: 56.5%
COc1cc2c(cc1OC)CN(Cc1cc(OC)c3c(c1)OCO3)CC2,"inconclusive: 10 µM [inhibitor, partial curve, poor fit]",
CC(C)(C)c1csc(NC(=O)Cc2cccs2)n1,active: 50.1 µM,
CCOC(=O)N1CCN(C(=O)CSc2nnc(Cc3ccccc3)o2)CC1,"inconclusive: 44.7 µM [inhibitor, partial curve, poor fit]",
CCCCCCCCCCCCCCCCOP(=O)([O-])OCC[N+](C)(C)C,,inactive: 1.57% [at 2.33 µM]
COc1ccccc1-c1c(C)nn2c(-c3ccccc3)cc(-c3ccccc3)nc12,,inactive: 6.19%
COc1cc(NC(=O)N2CCOCC2)cc(OC)c1,,inactive: 7.85% [at 102 µM]
CCCSCCCNC(=O)C1CCN(C(=O)c2cnn(-c3ccccc3)c2-n2cccc2)CC1,,inactive: -7.9%
Cc1ccc(Sc2ncnc3onc(C)c23)cc1,,inactive: 27.1% [at 102 µM]
COc1cccc(C(=O)Nc2ccc(-n3nncc3-c3ccccc3)cc2)c1OC,,inactive: 3.56%
CCCNC(=O)c1cc(-c2ccccc2)c(N2CCCCC2)s1,,inactive: -7.34% [at 102 µM]

SMILES,Potency,"activity, negative = inhibition"
Cc1cccc(N2CCN(C(=O)Cn3nc(C)c4sc5ccccc5c4c3=O)CC2)c1C,"inconclusive: 39.8 µM [inhibitor, partial curve, poor fit]",
O=C1N(c2ccccc2C(F)(F)F)O[C@]1(c1ccccc1)C1CCCCC1,,inactive: 0.64% [at 0.501 µM]
CC1CN(c2c3c(nc4ncnn24)CCCC3)CC(C)O1 (configuration not stated),active: 3.16 µM,
COc1cccc(CC(CC(=O)O)C(=O)Nc2cc(C)ccc2C)c1 (configuration not stated),"inconclusive: 89.1 µM [inhibitor, single point]",
CC1CCCCC1NC(=O)c1cc(S(=O)(=O)N2CCCCC2)ccc1N1CCOCC1 (configuration not stated),,inactive: -0.218% [at 12.7 µM]
Cc1cccc(NC(=O)c2cc(S(=O)(=O)N3CCCC3)cn2C)c1,"inconclusive: 89.1 µM [inhibitor, single point]",
Cc1ccc(C(=O)Nc2nn(C)c3cccc(F)c23)cc1,"inconclusive: 79.4 µM [inhibitor, single point]",
Cc1cc(C)nc(N(C#N)CCOc2ccc(Cl)cc2)n1,,inactive: -14.4%
C=CCn1c(SCC(=O)c2c(N)n(C)c(=O)n(C)c2=O)nnc1-c1ccncc1,"inconclusive: 44.7 µM [inhibitor, partial curve, poor fit]",
COc1ccccc1NC(=O)C1=C(C)Nc2c(C(=O)Nc3ccc(C)cc3)cnn2C1c1cccc(OC)c1OC (configuration not stated),,inactive: 0.64%
COc1ccc(-c2cn(CCc3c[nH]c4ccccc34)nn2)cc1,"inconclusive: 56.2 µM [inhibitor, partial curve, poor fit]",
OC(COCc1ccccc1)CN1CCN(c2ccccc2)CC1 (configuration not stated),"inconclusive: 14.1 µM [inhibitor, partial curve, poor fit]",
COCCn1c(CN2CCN(c3cccc(Cl)c3)CC2)nc2c1c(=O)n(C)c(=O)n2C,"inconclusive: 89.1 µM [inhibitor, single point]",
C=CCNC(=S)N1CCN(CCN=CC2=C(O)CC(c3ccco3)CC2=O)CC1 (configuration not stated),"inconclusive: 39.8 µM [inhibitor, single point]",
O=C(NN(C(=O)C1CC1)c1nc2ccccc2s1)C1CC1,"inconclusive: 89.1 µM [inhibitor, single point]",
CCOc1ccc(Cl)cc1CNc1nnnn1C,,inactive: 2.04% [at 102 µM]
Cc1c(O)c(S(=O)(=O)c2ccccc2)c(=O)n(-c2ccccc2)c1-c1ccccc1,"inconclusive: 89.1 µM [inhibitor, single point]",
Cc1csc(SCC(=O)NCCc2ccc(Cl)cc2Cl)n1,,inactive: -16.9% [at 102 µM]
COc1ccc(Cl)cc1N1C(=O)C2CCCN2C1c1sccc1C (configuration not stated),"inconclusive: 56.2 µM [inhibitor, partial curve, poor fit]",
Cc1ccc(NC(=O)c2cc(-c3cccc(O)c3)on2)cc1C,"inconclusive: 89.1 µM [inhibitor, single point]",
Cc1cc(N2C(=O)C(O)=C(C(=O)c3cc4ccccc4o3)C2c2ccc([N+](=O)[O-])cc2)no1 (configuration not stated),active: 44.7 µM,
COc1ccc(OC)c(NC(=O)Cc2csc(NC(=O)Nc3ccccc3OC)n2)c1,active: 44.7 µM,
CC(=O)Nc1ccc(N/C=C/C(=O)c2ccco2)cc1,"inconclusive: 3.16 µM [inhibitor, full curve, poor fit]",
